Assay results as given in PubChem BioAssay AID1030 (National Center for Advancing Translational Sciences (NCATS), 2008).
The whole screen tested about 220,000 compounds, of which about 16,000 (7.3%) were called active. Inconclusive results, whose numbers are uncertain, are shown with a selection of clear calls. Calls follow the shape of the dose curve; as a rule, active = well fitted inhibition curve with a large enough effect (not every such curve was filed as active); inconclusive = small, poorly fitted or top-dose-only effect, or another doubt; inactive = no such curve, though single readings can be large or run the other way. Potencies of inconclusive entries are left out as doubtful fits. More than one record can exist for a structure, and the calls need not agree.

What follows are molecules tested against Aldehyde dehydrogenase 1A1 (Homo sapiens) (UniProt P00352) (assay: qHTS Assay for Inhibitors of Aldehyde Dehydrogenase 1 (ALDH1A1)). Conditions: Purified ALDH1A1, NADH fluorescence, propionaldehyde substrate; series mostly up to 75.3 µM; activity, negative = inhibition: at the top concentration.
Sequence of UniProt P00352 (P00352 whole entry, looked up): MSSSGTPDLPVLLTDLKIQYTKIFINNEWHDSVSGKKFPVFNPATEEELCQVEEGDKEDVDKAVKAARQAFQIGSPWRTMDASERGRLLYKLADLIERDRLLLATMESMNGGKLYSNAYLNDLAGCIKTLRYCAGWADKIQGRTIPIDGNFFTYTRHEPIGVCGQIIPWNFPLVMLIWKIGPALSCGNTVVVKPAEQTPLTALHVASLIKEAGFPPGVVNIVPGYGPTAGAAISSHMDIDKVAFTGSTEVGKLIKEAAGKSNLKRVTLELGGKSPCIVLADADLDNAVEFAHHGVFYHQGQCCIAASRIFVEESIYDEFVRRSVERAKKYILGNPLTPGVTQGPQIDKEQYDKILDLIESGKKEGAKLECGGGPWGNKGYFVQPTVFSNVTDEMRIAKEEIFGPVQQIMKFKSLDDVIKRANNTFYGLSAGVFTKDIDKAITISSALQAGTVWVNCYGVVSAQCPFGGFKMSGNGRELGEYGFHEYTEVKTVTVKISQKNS

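For activity, negative = inhibition in this document: plate controls were no enzyme wells and a reference inhibitor.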
Potency is read from the fitted curve at half-maximal effect; tags tell the direction and shape of the fitted curve.

| Compound | activity, negative = inhibition | Potency |
| --- | --- | --- |
| CCc1ccc(C2C(C#N)=C(N)Oc3n[nH]c(CC(=O)OC)c32)cc1 (centres undefined) | inactive: -2.99% |  |
| Cc1ccc(NC(=O)c2cc(N3C(=O)C4CC=CCC4C3=O)ccc2N2CCCCC2)cc1 (centres undefined) |  | inconclusive [inhibitor, partial curve] |
| COc1ccc(NC(=O)CSc2nnc(N)s2)c([N+](=O)[O-])c1 | inactive: -5.57% |  |
| CCNS(=O)(=O)c1ccc(NC(=O)c2ccc(Cn3cc(Br)cn3)o2)cc1 | inactive: 17.1% |  |
| CCc1nnc(NC(=O)CSc2nnc(-c3ccc(S(=O)(=O)N(CC)CC)cc3)n2CC)s1 |  | inconclusive [inhibitor, partial curve] |
| OCC1(CCc2ccccc2)CCN(Cc2ccc3nsnc3c2)CC1 |  | active: 8.91 µM |
| Cc1cc(=S)c2cccc(C)c2[nH]1 |  | inconclusive [inhibitor, single point] |
| COc1ccc(-n2c(=O)c(-c3cccs3)nc3cnc(N4CCOCC4)nc32)cc1 |  | inconclusive [inhibitor, single point] |
| Nc1c(-c2ccccn2)cnn1-c1nc(-c2ccc(F)cc2)cs1 | inactive: 7.63% |  |
| COc1ccc(N2CCN(C(=O)c3ccc(Br)cc3)CC2)c([N+](=O)[O-])c1 |  | active: 12.6 µM |
| CC(Oc1ccc(Cl)cc1Cl)C(=O)Nc1ccc(O)cc1 (centres undefined) |  | inconclusive [inhibitor, single point] |
| CCOC(=O)c1c(CC(C)C)csc1NC=O |  | inconclusive [inhibitor, single point] |
| O=C(NC(=S)Nc1ccccc1N1CCOCC1)c1cccs1 |  | active: 39.8 µM |
| CCC1CCCCN1C(=O)CSc1nnc(CNC(=O)c2cc(OC)c(OC)c(OC)c2)o1 (centres undefined) |  | inconclusive [inhibitor, full curve] |
| O=C(CSc1nnnn1Cc1ccccc1)NC1CCCCC1 |  | inconclusive [inhibitor, single point] |
| CC1(C)Cc2nc3sc4c(N(CCO)CCO)ncnc4c3cc2CO1 |  | inconclusive [inhibitor, partial curve] |
| COc1ccccc1/C=C/C(=O)NC(=S)NC(C)C |  | inconclusive [inhibitor, partial curve] |
| COc1ccc(C(=O)CSc2nnc(-c3ccccn3)n2Cc2ccco2)cc1 |  | active: 22.4 µM |
| Cn1c(SCc2ccccc2)nnc1-c1ccncc1 | inactive: 9.38% |  |
| CN(C)CCOc1ccc2ccccc2c1 |  | inconclusive [inhibitor, single point] |
| CC1(C)Cc2c(c(N3CCOCC3)nc3sc4c(NN)ncnc4c23)CS1 |  | inconclusive [inhibitor, single point] |
| Cc1ccc(CN=C2NC(=O)C(CC(=O)NCCc3ccccc3)S2)cc1 (centres undefined) |  | inconclusive [inhibitor, single point] |
| COc1cc(OC)cc(-c2nnc(SCC(=O)N3CCOCC3)o2)c1 |  | inconclusive [inhibitor, single point] |
| Cc1sc2nc(C(C)Nc3ccccc3N3CCOCC3)[nH]c(=O)c2c1C (centres undefined) |  | inconclusive [inhibitor, partial curve] |
| Cc1c(Cl)ccc2c1NC(=O)[C@]21N[C@@H](CCC(N)=O)[C@H]2C(=O)N(c3ccc(F)cc3)C(=O)[C@H]21 |  | active: 14.1 µM |

| Compound | activity, negative = inhibition | Potency |
| --- | --- | --- |
| CCOC(=O)N1CCN(C2CC(=O)N(c3ccc(C)cc3)C2=O)CC1 (centres undefined) |  | inconclusive [inhibitor, single point] |
| COc1cccc(C2C(C#N)=C(N)Oc3c2oc(CO)cc3=O)c1OC (centres undefined) | inactive: 9.02% |  |
| COc1ccc(OCC(O)CNC(=O)Nc2ccc(F)cc2)cc1 (centres undefined) | inactive: 2% |  |
| Cc1ccnn1Cc1cc(C(=O)O)c2ccccc2n1 | inactive: 4.71% |  |
| COc1cc(/C=C/c2nnc3c4ccccc4ncn23)cc(OC)c1OC | inactive: -1.18% |  |
| O=C(O)c1cc(N/N=C/c2ccc(N3CCOCC3)s2)ccc1Cl |  | active: 2.82 µM |
| NNC(=O)c1sc2cc(C(F)(F)F)cnc2c1-c1ccccn1 |  | active: 7.08 µM |
| O=C(CC1CCCC1)Nc1nnc(C2CC2)s1 |  | inconclusive [inhibitor, single point] |
| Cn1c(Cn2nnc3ccccc32)nnc1SCC(=O)Nc1nccs1 | inactive: 1.88% |  |
| Cn1nnnc1SCc1cn2cccnc2n1 |  | inconclusive [inhibitor, partial curve] |
| CCCCC(=O)NC(=S)Nc1cccc(NC(=O)c2ccccc2)c1 |  | inconclusive [inhibitor, single point] |
| COc1cc(OC)cc(C(=O)NCc2ccc3c(c2)cc(C)n3C)c1 |  | inconclusive [inhibitor, single point] |
| Cc1c([N+](=O)[O-])c([N+](=O)[O-])nn1CC(=O)NCCc1ccccc1 |  | inconclusive [inhibitor, partial curve, poor fit] |
| COc1ccccc1Nc1nc(-c2sc(NC(=O)CC(C)C)nc2C)cs1 |  | inconclusive [inhibitor, partial curve] |
| N#Cc1ncc(-c2ccc3c(c2)OCCOCCOCCOCCOCCO3)nc1C#N | inactive: 10.9% |  |
| CC1(c2ccccc2)NC(=O)N(CC#N)C1=O (centres undefined) | inactive: 7.88% |  |
| CN1CC=C2C(C#N)=C(N)C(C#N)(C#N)C(Cc3ccccc3)C2C1 (centres undefined) |  | inconclusive [inhibitor, single point] |
| COC(=O)c1ccc(NC(=S)NNC(=O)c2ccccc2)cc1 |  | active: 8.91 µM |
| CCCCOCC1CN(c2ccccc2)C(=O)CS1 (centres undefined) |  | active: 12.6 µM |
| OCCC1CN(Cc2ccc(Oc3ncccn3)cc2)CCN1CCc1ccccc1 (centres undefined) | inactive: -2.06% |  |
| CCSc1oc(-c2ccccc2)nc1S(=O)(=O)c1ccccc1 |  | inconclusive [inhibitor, single point] |
| COc1cc(C(=O)NC(C(=O)Nc2cccc(C(C)=O)c2)C(C)C)cc(OC)c1OC (centres undefined) |  | inconclusive [inhibitor, single point] |
| Cc1nn(-c2ccccc2)c(Cl)c1C(=O)Nc1nnc(C2CCCC2)s1 |  | active: 2.82 µM |
| COc1ccc(-c2ccnc3c(C(=O)O)cnn23)cc1 |  | inconclusive [inhibitor, single point] |
| Cc1ccccc1-c1ccc(C=Nc2c(C)n(C)n(-c3ccccc3)c2=O)o1 |  | inconclusive [inhibitor, single point] |

| Compound | activity, negative = inhibition | Potency |
| --- | --- | --- |
| CCOC(=O)CSc1[nH]c2cc(OC)ccc2c1[N+](=O)[O-] | inactive: 1.94% |  |
| S=C(NCCc1ccccn1)Nc1cc(Cl)cc(Cl)c1 |  | inconclusive [inhibitor, single point] |
| Cc1cccn2c(CN(C)CC3Cc4ccccc4O3)c(C(=O)N3CCCCC3)nc12 (centres undefined) |  | inconclusive [inhibitor, single point] |
| COc1ccc2cc1Oc1ccc(cc1)CC1c3cc(c(OC)cc3CCN1C)Oc1c(OC)c(OC)cc3c1C(C2)N(C)CC3 (centres undefined) | inactive: 5.98% |  |
| COc1ccc(N(C(=O)COc2cccc(C)c2)S(=O)(=O)c2ccc(C)cc2)cc1 |  | inconclusive [inhibitor, single point] |
| O=C(/C=C(\O)c1ccc(Cl)cc1)C(=O)NNC(=O)C(O)(c1ccccc1)c1ccccc1 |  | inconclusive [inhibitor, partial curve] |
| O=C(N/N=C/c1sc2ccccc2c1O)c1ccccc1 |  | inconclusive [inhibitor, single point] |
| CC(C)CN1C(=O)c2ccccc2C1(O)Cc1ccccc1 (centres undefined) |  | inconclusive [inhibitor, partial curve] |
| COC(=O)c1nc(N)sc1-c1ccc(Cl)cc1 |  | inconclusive [inhibitor, single point] |
| CCOC(=O)c1cc(-c2ccccc2)nn1CCC#N | inactive: -4.7% |  |
| COc1ccc(N(CC(=O)Nc2ccc3c(c2)OCO3)S(C)(=O)=O)c(OC)c1 |  | inconclusive [inhibitor, single point] |
| COC(=O)c1ccc2c(=O)n(CCN3CCOCC3)c(=S)[nH]c2c1 |  | active: 3.98 µM |
| CCOc1cc(C2CC(=O)N3CN(C4CCCCC4)CSC3=C2C#N)ccc1O (centres undefined) |  | active: 6.31 µM |
| CCOC(=O)C1CCN(c2c(N3CCN(Cc4ccccc4)CC3)c(=O)c2=O)CC1 |  | inconclusive [inhibitor, partial curve] |
| CN1CC[C@H](CN2c3ccccc3Sc3ccccc32)C1 | inactive: 5.96% [at 13.5 µM] |  |
| Cc1ccc(CNC(=O)[C@H](C)[C@H]2C[C@]2(C)[C@H](NC(=O)OCc2ccccc2)c2ccccc2)o1 |  | active: 14.1 µM |
| CCN1CC=C2C(C#N)=C(N)C(C#N)(C#N)C(CCc3ccccc3)C2C1 (centres undefined) |  | inconclusive [inhibitor, partial curve] |
| N#Cc1cc(-c2cccc(Cl)c2)c[nH]c1=O | inactive: -7.31% |  |
| CSc1nnc(NC(=O)c2ccc(C)c(S(=O)(=O)N3CCOCC3)c2)s1 |  | inconclusive [inhibitor, single point] |
| CCCCN(C)CCCNC(=O)CS(=O)Cc1nc(-c2ccc(OC)c(OC)c2)oc1C (centres undefined) |  | inconclusive [inhibitor, single point] |
| N#C/C(=C\c1cn(CCOc2ccccc2F)c2ccccc12)C(=O)NCc1cccs1 | inactive: 16.1% |  |
| Cc1c(C2CCN(CCc3ccccc3)CC2)noc1-c1ccc(Cl)cc1 |  | inconclusive [inhibitor, full curve] |
| O=C(c1cccc(F)c1)N1CCC(N2CCOCC2)CC1 |  | active: 14.1 µM |
| Cc1ccc(NC(=O)COC(=O)C2CC(=O)N(Cc3ccccc3)C2)cc1S(=O)(=O)N(C)C (centres undefined) |  | inconclusive [inhibitor, single point] |
